Here are results for 108 compounds from PubChem BioAssay AID488969 (Vanderbilt High Throughput Screening Facility, 2010).

Molecules are shown by their SMILES. In all, about 110,000 compounds were measured (“z-score”: median about -0.1, highest 2% from about 2 on). This is one part of the list.

This test has as its target Metabotropic glutamate receptor 8 (Rattus norvegicus) (UniProt P70579). Kind of test: rat mGluR8 modulators via GIRK flux, primary screen, cell-based, thallium flux, HTS (AID 488969). The following applies: HEK293 rat mGluR8, GIRK (G protein-gated inwardly rectifying potassium channel) thallium flux, FluoZin2; at 10 µM; stronger effect = higher value; submaximal glutamate (EC20) added with thallium.
UniProt P70579, sequence (P70579 whole entry, looked up): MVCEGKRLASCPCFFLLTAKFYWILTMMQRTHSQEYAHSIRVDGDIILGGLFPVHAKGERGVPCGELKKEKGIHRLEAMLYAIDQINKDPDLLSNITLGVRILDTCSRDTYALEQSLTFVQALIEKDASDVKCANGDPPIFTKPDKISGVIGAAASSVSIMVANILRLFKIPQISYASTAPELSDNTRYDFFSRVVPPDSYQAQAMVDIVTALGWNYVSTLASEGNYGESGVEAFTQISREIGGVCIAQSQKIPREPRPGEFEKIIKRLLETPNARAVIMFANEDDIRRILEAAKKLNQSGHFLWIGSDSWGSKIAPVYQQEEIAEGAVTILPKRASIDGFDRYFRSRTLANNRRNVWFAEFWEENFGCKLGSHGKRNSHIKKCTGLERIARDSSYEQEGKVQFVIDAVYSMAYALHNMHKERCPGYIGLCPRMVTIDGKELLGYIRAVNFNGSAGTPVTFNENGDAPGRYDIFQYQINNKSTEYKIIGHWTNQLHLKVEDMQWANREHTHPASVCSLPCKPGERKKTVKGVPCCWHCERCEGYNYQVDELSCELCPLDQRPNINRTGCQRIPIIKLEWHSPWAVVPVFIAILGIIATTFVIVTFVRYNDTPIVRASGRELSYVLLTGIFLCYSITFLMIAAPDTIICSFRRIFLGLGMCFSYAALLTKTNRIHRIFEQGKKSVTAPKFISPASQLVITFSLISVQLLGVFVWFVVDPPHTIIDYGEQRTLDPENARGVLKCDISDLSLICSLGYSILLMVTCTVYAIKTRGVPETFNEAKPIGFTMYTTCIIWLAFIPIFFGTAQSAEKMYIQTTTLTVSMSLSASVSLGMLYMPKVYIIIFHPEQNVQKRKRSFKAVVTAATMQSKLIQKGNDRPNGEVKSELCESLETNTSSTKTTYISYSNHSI
`CCNC(=O)COC(=O)CNC(=O)c1cc(Cl)cc([N+](=O)[O-])c1` registered a z-score of -0.0822.
With `CCN(CC)CCN1C(=O)C(=O)/C(=C(/O)c2ccc(F)cc2)C1c1cccnc1` (stereo not drawn), the z-score is -0.378.
`CN1CCN(S(=O)(=O)c2cc([N+](=O)[O-])ccc2N2CCCCCC2)CC1` yielded a z-score of 0.095.
Regarding `O=c1c2cc(-c3ccccc3)sc2ncn1-n1cccc1`, the z-score was -0.00252.
For the compound `Cc1ccc(-c2ccc(CCC(=O)O)n2Cc2ccco2)cc1`, the z-score is -0.00553.
Turning to `COc1ccc(NS(=O)(=O)c2cc(C)ccc2NC(=O)c2cc(C)oc2C)cc1`, the z-score was -0.849.
As to `CCOC(=O)c1c(-c2ccc(Cl)cc2)cn2ccccc12`, the z-score was -0.133.
The compound `O=C(Nc1ccc(Cl)cc1)NC1CCCc2ccccc21` (stereo not drawn) had a z-score of 0.0936.
The compound `Cc1ccc2[nH]cc(CCNC(=O)c3ccc([N+](=O)[O-])cc3)c2c1` showed a z-score of -0.58.
For `O=[N+]([O-])c1cc(C(F)(F)F)ccc1NCCc1c[nH]c2ccccc12`, the z-score was -0.0868.
In the case of `CCCc1nnc(NC(=O)C(C)N2C(=O)C3C4C=CC(C4)C3C2=O)s1` (stereo not drawn), the z-score is -0.121.
Take `CC(C)CCNC(=O)CSc1nc2ccsc2c(=O)n1NC(=O)c1ccccc1`: the z-score was -0.0204.
Turning to `CC12C(=O)N(c3ccc(OC(=O)c4ccco4)cc3)C(=O)C1C1c3ccccc3C2c2ccccc21` (stereo not drawn), the z-score is -0.124.
Turning to `CCC(C)c1ccccc1OCCCCN1CCCC1` (stereo not drawn), the z-score came out at 0.173.
`O=C1OCCC1Sc1nnc(-c2cccc(Br)c2)o1` (stereo not drawn) had a z-score of -1.17.
For `COc1cccc(-c2csc(NC(=O)C3CC3)n2)c1`, the z-score is -0.417.
In turn, `CCOc1cccc(C(=O)NC(=S)Nc2cccc(C)c2)c1` had a z-score of 0.426.
`CN(C)c1nc(NS(=O)(=O)c2ccc(Cl)cc2)nc(N(C)C)n1` showed a z-score of 0.395.
Regarding `O=C(OCc1ccc(C(=O)c2ccccc2)cc1)c1cccc(-c2nnc(-c3ccccc3)o2)c1`, the z-score was -0.18.
The same measure for `Cc1ccc(N2CCN(C(=O)CN3C(=O)c4ccccc4C3=O)CC2)cc1`: 0.113; for `Nc1nc(NCc2ccccc2)nc(Nc2cccc(F)c2)c1[N+](=O)[O-]`: -0.183.
`CC(=O)N1CSCC1C(=O)N1CCN(c2ccc(N3CCOCC3)nn2)CC1` (stereo not drawn) yielded a z-score of 0.156.
`CC(C)C(C)(C#N)NC(=O)CSc1nnc(-c2ccncc2)n1Cc1ccccc1` (stereo not drawn) displayed a z-score of 0.023.
`COc1cc(/C=N/NC(=O)c2cccs2)ccc1OCc1ccccc1` had a z-score of 0.0363.
The same measure for `Cc1cc(C)n(-c2nc3c(c(=O)[nH]c(=O)n3C)n2Cc2ccccc2)n1`: -0.146; for `CC(C)(C)n1nnnc1C(c1cccs1)N1CCN(Cc2ccccc2)CC1` (stereo not drawn): -0.135.
For the compound `c1ccc(C(c2ccccc2)N2CCN(Cc3nnnn3C3CCCC3)CC2)cc1`, the z-score was -0.35.
Regarding `COc1ccccc1N1CCN(c2nc(-c3ccccc3)cc(C(F)(F)F)n2)CC1`, the z-score turned out to be 0.995.
Turning to `CCn1c(C)nc2cc(S(=O)(=O)N3CCCC3)ccc21`, the z-score is -0.177.
As for `Cc1ccc(N(Cc2cc3cc(C)ccc3[nH]c2=O)S(=O)(=O)c2ccccc2)cc1`, the figure is 0.0448.
In the case of `COc1ccc(-n2c(C)nc3cc(C(=O)O)ccc32)cc1`, the z-score is -0.104.
`CCn1c(SCC(=O)NC2CCCCC2)nc2c(c1=O)SC(C)C2` (stereo not drawn): the z-score was 0.213.
Compound `Cc1cc(C)nc(/N=C(\N)Nc2ccc([N+](=O)[O-])cc2)n1` came in with a z-score of -0.477.
On to `COC(=O)c1[nH]c2ccccc2c1NC(=O)/C=C/c1ccc2c(c1)OCO2`, for which the z-score worked out at 0.563.
As for `COc1ccc2nc(-c3ccco3)c(-c3ccco3)nc2c1`, the figure is 0.264.
For `O=C(COc1cccc(F)c1)Oc1ccc(C(=O)c2ccccc2)cc1`, the z-score was -0.0427.
As for `O=C(CCN1C(=O)c2ccccc2C1=O)Nc1ccc(-c2nc3ccccc3s2)cc1`, the figure is -0.413.
As for `O=C(c1ccc2c(c1)C(=O)N(Cc1ccco1)C2=O)N1CCOCC1`, the figure is -0.379; as for `COc1ccccc1/C=N/NC(=O)c1ccc(-c2ccccc2)cc1`, -0.445.
The compound `COC(=O)c1noc(-c2ccc(OC)cc2)n1` displayed a z-score of -1.48.
For `Cc1cc(NS(=O)(=O)c2ccc(Nc3nc(-c4sc(N)nc4C)cs3)cc2)no1`, the z-score came to 0.0903.
The compound `O=C(CNCc1ccc(F)cc1)Nc1ccccc1-c1ccccc1` returned a z-score of -0.509.
As to `Clc1ccc(-c2nnc(C3CCCCC3)o2)cc1`, the z-score turned out to be 0.225.
For `O=C(NCc1cccs1)c1cc(-c2ccccc2)on1`, the z-score was 0.293.
In turn, `Cc1ccc(C)c(N(C(=O)Cn2nnc(-c3cccs3)n2)C(C(=O)NC2CCCC2)c2ccncc2)c1` (stereo not drawn) displayed a z-score of 0.000716.
As for `Cc1c(C(=O)O)oc2c1/C(=N\O)CCC2`, the figure is -0.146.
As for `O=C(Nc1ccc(Cl)cc1)N(CCCN1CCOCC1)Cc1cccs1`, the z-score is -0.0662.
`Cc1ccc(C)c(C(=O)COC(=O)c2cc([N+](=O)[O-])ccc2NCCO)c1` displayed a z-score of 0.122.
With `Cc1ccc(NC(=O)Cc2sc(C)nc2-c2ccc(C)cc2)cc1`, the z-score is -0.143.
The compound `CCCC/C(C)=N\NC(=O)CNS(=O)(=O)c1ccc([N+](=O)[O-])cc1` gave a z-score of -0.0725.
Compound `O=C(NCc1ccccc1)C(c1ccccc1)N(Cc1ccc2c(c1)OCO2)C(=O)Cc1cccs1` (stereo not drawn) registered a z-score of -0.626.
As for `O=C(O)c1ccc(NS(=O)(=O)c2ccc3c(c2)OCCO3)cc1`, the figure is 0.0717; as for `Fc1ccc(C(c2nnnn2Cc2ccco2)N2CCN(C3CCCCC3)CC2)cc1` (stereo not drawn), 2.31.
`Cc1c(N=C2C(=O)Nc3ccccc32)c(=O)n(-c2ccccc2)n1C` had a z-score of -0.127.
The compound `COc1cc2c(cc1OC)C1=NC(=O)CN1C(SCc1ccccc1C)=N2` showed a z-score of -0.18.
`Cc1cc(C)nc(N2CCCC(C(=O)NC(C)CCc3ccco3)C2)n1` (stereo not drawn) gave a z-score of 0.506.
`CC1(C)CC(=O)C(N=Nc2ccc3ncsc3c2)=C(O)C1` had a z-score of 0.532.
In the case of `CS(=O)(=O)N(CC(N)=O)c1ccc(F)c(Cl)c1`, the z-score is -0.383.
The same measure for `Cc1ccc(C(=O)NCc2ccco2)cc1[N+](=O)[O-]`: -0.196.
In turn, `O=C(NN=C1CCCC1)c1ccn[nH]1` registered a z-score of 0.272.
On to `CCOc1ccc2[nH]cc(C(=O)N3CCN(C4CCCCC4)CC3)c(=O)c2c1`, for which the z-score is -0.123.
For `O=C(O)c1sc2cc(C(F)(F)F)cnc2c1-c1ccccc1`, the z-score was -0.272.
The same measure for `COCCn1c(-c2ccc(OC)cc2)nc2ccccc21`: 1.01; for `Clc1nc(Cl)nc(N(c2ccccc2)c2ccccc2)n1`: -0.0382; for `CC(=O)c1c(C)nc(-c2ccccc2)n1O`: 0.16.
Regarding `CC(=O)C1=C(C)NC(SCC(=O)c2ccc(-c3ccccc3)cc2)=C(C#N)C1c1cccnc1` (stereo not drawn), the z-score was -0.244.
For the compound `CCCc1cc2c(OC(=O)CC)c(-c3ccc(C(=O)OCC)o3)c(=O)oc2cc1OC`, the z-score stood at 0.457.
In turn, `COc1ccccc1C1N(c2cc(Cl)ccc2OC)C(=O)C2CCCN21` (stereo not drawn) gave a z-score of -0.16.
The same measure for `CC(C)(C)NS(=O)(=O)c1ccc(Oc2ncc(C(F)(F)F)cc2Cl)cc1`: 0.0117; for `CCCCOc1ccc(C(=O)N/N=C/c2cn[nH]c2-c2ccc(OC)c(OC)c2)cc1`: 0.155; for `COc1cccc(C(=O)N/N=c2\oc3c(OC)cccc3cc2C(=O)NCc2ccccc2)c1`: -0.203.
`COc1cc([N+](=O)[O-])ccc1NC(=S)Nc1cccc(C(=O)O)c1` gave a z-score of 0.18.
In turn, `Cc1cc(C)cc(NC(=S)N2CCC(c3nc4ccccc4s3)CC2)c1` displayed a z-score of -0.207.
`Cc1cccc(NC(=S)N(CCN(C)C)C(C)c2ccco2)c1` (stereo not drawn) gave a z-score of -0.449.
Regarding `COc1ccc2ncc(S(=O)(=O)c3ccccc3)c(N3CCN(c4ccccc4)CC3)c2c1`, the z-score is -0.216.
Compound `COc1cccc(-c2cc(C(=O)N3CCc4ccccc4C3)no2)c1` gave a z-score of 0.252.
`Cc1ccc(NC(=O)CN2CCC(NC(=O)Cc3ccccc3)CC2)cc1C` yielded a z-score of -0.117.
Take `O=C1c2ccccc2C(=O)N1CCc1nc(-c2ccc(Cl)cc2)no1`: the z-score was -0.122.
Consider `O=C(CCC1CCCC1)N1CCN(S(=O)(=O)Cc2ccccc2)CC1`, for which the z-score was -0.116.
`CN1CCN(c2ccc(Cl)cc2NC(=O)c2cccc(S(=O)(=O)N(C)C)c2)CC1` yielded a z-score of 0.0431.
Compound `Cc1nc2ccc(S(=O)(=O)NC(C(=O)N3CCn4c3nc3ccccc34)C(C)C)cc2s1` (stereo not drawn) had a z-score of -0.155.
`CCOC(=O)C1=C(C)N(c2ccc(C)c(C)c2)C(=O)/C1=C\c1ccco1` came in with a z-score of 0.215.
Regarding `COc1cc([N+](=O)[O-])ccc1NC(=O)CC1SC(=Nc2ccc(F)cc2)N(CCC2=CCCCC2)C1=O` (stereo not drawn), the z-score was 0.661.
Take `Cc1ccc(CSc2ncnc3c2cnn3-c2ccc(C)cc2)cc1`: the z-score came out at 1.75.
`CSc1nc2cc(F)c(F)cc2n1C` came in with a z-score of -0.321.
As to `COc1cc(OC)cc(-n2nnnc2SCC(=O)Nc2ccc(C(C)=O)cc2)c1`, the z-score is -0.0985.
`C#CC(CO)N(CCN(Cc1ccccc1)C(C#C)CO)Cc1ccccc1` (stereo not drawn): the z-score came out at 2.19.
On to `COC(=O)c1ccccc1OCCOCCOc1cccc2cccnc12`, for which the z-score is -0.257.
As for `C/C(CCc1ccc2c(c1)OCO2)=N\N=C1\NC(=O)CC(C(=O)Nc2ccccc2)S1` (stereo not drawn), the figure is -0.242; as for `Cc1ccc(OCC2Cn3c(nc4c3c(=O)[nH]c(=O)n4C)O2)cc1` (stereo not drawn), -0.258.
`CCOC(=O)c1c(NC(=O)COC(=O)Cn2c(C)nc3ccccc32)sc2c1CCCC2` gave a z-score of -0.431.
The same measure for `CC(=O)N(c1ccccc1)c1nc(C)cc(C)c1C#N`: -0.111; for `CCCN(CCC)c1nc(N)c(C#N)c(CC#N)c1C#N`: -0.93; for `Cn1c(=O)[nH]c(=O)c2c1nc(Sc1ccccc1)n2CCc1ccccc1`: -0.134.
As for `COc1ccc(/C=C2\SC(N3CCc4ccccc4C3)=NC2=O)cc1`, the figure is -0.34; as for `COc1ccccc1C(=O)Nc1ccc2c3c(cccc13)CC2`, -0.287; as for `C/C(Nc1ccc(C)cc1)=C(/C#N)C(N)=O`, 0.0432.
The compound `CC(CCc1ccco1)NC(=O)Cn1nc(Cc2ccncc2)c2ccccc2c1=O` (stereo not drawn) yielded a z-score of 0.41.
`Cc1ccc(-c2nnn(CCC(=O)Nc3ccc4c(c3)OCO4)n2)cc1` gave a z-score of -0.244.
Regarding `COc1ccc(S(=O)(=O)N2CCN(Cc3ccc(Cl)cc3)CC2)cc1`, the z-score is -0.871.
Compound `CCCn1c(SCC(=O)c2cc(OC)ccc2OC)nc2c1c(=O)n(C)c(=O)n2C` showed a z-score of 0.355.
Take `COC(=O)c1ccccc1S(=O)(=O)N(CCCN1CCOCC1)Cc1cccs1`: the z-score was -0.193.
The compound `CCOC(=O)c1cnc2c(C)cccc2c1NCc1ccco1` registered a z-score of -0.68.
For the compound `Cc1cc(Cl)ccc1OCC(=O)Nc1ccccc1N1CCOCC1`, the z-score stood at 2.81.
For `COc1ccc(OC)c(C2=NOC(C(=O)N3CCN(c4ccccc4)CC3)C2)c1` (stereo not drawn), the z-score was -0.631.
Compound `CCOC(=O)CSc1nc2sc(C)c(C)c2c(=O)n1N` had a z-score of -0.265.
Compound `CC1=CN2CC(O)CN=C2C=C1` (stereo not drawn) returned a z-score of -0.0845.
The compound `O=C(O)C1CCC(CNCc2cccnc2)CC1` (stereo not drawn) registered a z-score of -0.332.
